Measured values from PubChem BioAssay AID493208 (National Center for Advancing Translational Sciences (NCATS), 2011).
Screen size: about 44,000 compounds; about 340 (0.77%) were called active. Not shown: some 5% with an inconclusive outcome. The call rests on the fitted dose curve; in most records, active means well fitted inhibition curve with a large enough effect; inconclusive means small, poorly fitted or top-dose-only effect; inactive means flat fitted curve, though single readings scatter. The list shows a part of the results.

Experiment: Acumen qHTS Assay for Inhibitors of the mTORC1 Signaling Pathway in MEF (Tsc2-/-, p53-/-) Cells: Sytravon;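 further: plate controls were DMSO for no effect and rapamycin for full effect; nearly all actives have a fitted effect of over 50% in size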
Conditions: phospho-rpS6 immunofluorescence/PI, 24 h; series mostly up to 38.3 µM; activity change, negative = inhibition: at the top concentration
How it was run: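 Tsc2-/-, p53-/- mouse embryonic fibroblasts (empty-vector line) exposed to compound 24 hrs at 37 C, fixed, immunostained for phospho-rpS6 and counterstained with propidium iodide. Acumen laser scanning gives % positive cells from Alexa 488/PI ratio, thresholded using 7.5 nM rapamycin; PI count gives viability.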

Row | Compound | activity change, negative = inhibition
1 | CC1CCCN(Cc2cn3c(-c4cccc(Br)c4)nnc3s2)C1 (configuration not stated) | inactive: -0.758%
2 | CC(C(=O)Nc1cc(C(F)(F)F)ccc1Cl)n1nnc2sc3c(c2c1=O)CCCC3 (configuration not stated) | inactive: -3%
3 | Cc1ccccc1C(=O)NCc1nc2cccnc2n1Cc1ccccc1 | inactive: 1.73%
4 | COc1cccc(CNC(=O)c2nn(-c3ccccc3Cl)nc2CO)c1 | inactive: 0.258%
5 | Cc1ccc2oc(-c3ccc(C)c(NC(=O)c4ccc(C(C)(C)C)cc4)c3)nc2c1 | inactive: -0.612%
6 | Cc1ccc(-c2csc(=Nc3ccccc3)n2Cc2ccc3c(c2)OCO3)cc1C | inactive: -2.78%
7 | CCN1CCN(C(c2ccccc2)c2sc3nc(-c4ccco4)nn3c2O)CC1 (configuration not stated) | inactive: -9.13%
8 | COc1ccc(S(=O)(=O)c2c(Nc3ccc(F)cc3)sc(C(=O)c3ccc4c(c3)OCO4)c2N)cc1 | inactive: 0.079%
9 | CCOc1ccccc1C(=O)Oc1c(Sc2ccccc2)c(C)nn1C(C)(C)C | inactive: 4.23%
10 | COc1ccc(N2CCN(C(=O)c3ccc4c(c3)N(Cc3ccc(F)cc3)C(=O)c3ccccc3S4=O)CC2)cc1 (configuration not stated) | inactive: -7.96%
11 | COc1ccccc1C(=O)n1nc(-c2ccco2)nc1NCc1ccc(Cl)cc1 | inactive: 3.88%
12 | COCCc1nn2c(=O)cc(COC(=O)COc3ccc(F)cc3)nc2s1 | inactive: -4.84%
13 | COc1ccc(-c2cn3c(n2)sc2cc(C(=O)NCCCN4CCCCCC4)ccc23)cc1 | inactive: 2.81%
14 | CCCOC(=O)c1c(NC(=O)C2c3ccccc3Oc3ccccc32)sc2c1CCC(C)C2 (configuration not stated) | inactive: 4.76%
15 | CCC(O)c1cc2c(cc1NC(=O)c1cccc(Br)c1)OCCO2 (configuration not stated) | inactive: 3.69%
16 | CN1CCN(c2oc(-c3ccc(COc4ccc(Cl)cc4)o3)nc2C#N)CC1 | inactive: -4.71%
17 | Cc1nc2ccccc2n1CCc1nc2c3ccccc3nc(SCC(=O)Nc3ccc(Br)cc3F)n2n1 | inactive: -8.44%
18 | CC(C)C12CN3CC(C(C)C)(CN(C1)C3c1ccc(Cl)cc1)C2=O (configuration not stated) | inactive: 1.43%
19 | COc1ccc(-c2nc3ccccc3o2)cc1NC(=O)C(C)Oc1ccc(Cl)cc1Cl (configuration not stated) | inactive: -16.9%
20 | CN(C)CCCN(C(=O)c1cccs1)c1nc2ccc(F)cc2s1 | inactive: -0.986%
21 | Cc1ccc(CNC(=O)CSc2nc(=O)[nH]c3c2CCCC3)cc1 | inactive: 2.22%
22 | O=C(CN1C(=O)CCc2cc(S(=O)(=O)N3CCOCC3)ccc21)Nc1cccc(Cl)c1 | inactive: 0%
23 | CCCSc1ncc(Cl)c(C(=O)N(Cc2ccc(N(C)C)cc2)C2CCS(=O)(=O)C2)n1 (configuration not stated) | inactive: -8.06%
24 | COc1ccc(NC(=O)Cn2cnc3sc(C)c(S(=O)(=O)N4CCN(C)CC4)c3c2=O)cc1Cl | inactive: -12.1%
25 | CCOC(=O)c1ccc(N2C(=O)c3n[nH]c(C)c3C2c2ccc(C(C)(C)C)cc2)cc1 (configuration not stated) | inactive: -3.71%

Row | Compound | activity change, negative = inhibition
26 | CCOC(=O)CNC(=O)N1CCc2cc(S(=O)(=O)N3CCC(C)CC3)ccc21 | inactive: -4.44%
27 | Cc1ccc(NS(=O)(=O)c2ccc3c(c2)NC(=O)CCS3)cc1C | inactive: -0.0233%
28 | Cc1cccc(OC(=O)c2cc(-c3ccc4c(c3)OCCO4)on2)c1 | inactive: -2.02%
29 | CC(C)(C)OC(=O)N1CCC(c2c(C(=O)N3CCN(c4ncccn4)CC3)cnn2-c2ccccc2)CC1 | inactive: -9.23%
30 | Cc1ccccc1-n1c(/C=C/c2c(C)n(C)c3ccccc23)nc2ccccc2c1=O | inactive: 9.22%
31 | CCOC(=O)c1cccc(NC(=O)c2cc(CN3CCOCC3)on2)c1 | inactive: -2.29%
32 | CSc1ccc(CNc2ncc(-c3ccccc3)n2C)cc1 | inactive: -11.4%
33 | CCN(CC)S(=O)(=O)c1ccc(C(=O)Nc2nc3c(Cl)cc(Cl)cc3s2)cc1 | inactive: 0%
34 | CCOC(=O)c1ccc(NC(=O)COCc2cc(-c3ccc4c(c3)OCO4)on2)cc1 | inactive: 2.32%
35 | CC(=O)N1CCc2c(sc3c2c(=O)n(-c2ccccc2)c(=O)n3CC(=O)Nc2ccccc2C)C1 | inactive: -0.871%
36 | Cc1ccccc1S(=O)(=O)Cc1ccc(C(=O)NC2CCCCC2)o1 | inactive: 0.0403%
37 | COc1ccc(NC(=O)c2oc3ccccc3c2NC(=O)c2cc3ccccc3o2)cc1 | inactive: 5.74%
38 | CCOc1ccc(NS(=O)(=O)c2ccc3[nH]cc(C(=O)N(C)Cc4ccccc4)c(=O)c3c2)cc1 | inactive: -2.21%
39 | Cc1ccc(OC(=O)c2cc(-c3ccc4c(c3)OCCO4)on2)cc1C | inactive: -0.558%
40 | COc1ccc2c(c1)CC(NC(=O)Nc1c(C)cc(C)cc1C)CO2 (configuration not stated) | inactive: 9.74%
41 | CCOc1ccc(NC(=O)CSc2nnc3scc(-c4ccc(Cl)cc4)n23)cc1 | inactive: -10.9%
42 | CCOc1cccc2cc(-c3nc4ccc(C(=O)O)cc4[nH]3)c(=O)oc12 | inactive: 0.502%
43 | COc1cc2oc(=O)c(CC(=O)N3CCCCC3)c(C)c2cc1Cl | inactive: 4.06%
44 | COc1ccc(C)cc1S(=O)(=O)N1CCN(c2cccc(Cl)c2)CC1 | inactive: 7.12%
45 | Cc1cccc(-n2c3nc(=O)[nH]c(=O)c-3cc3c(Cl)cccc32)c1C | inactive: -18%
46 | O=C(NCC(c1ccco1)S(=O)(=O)c1cccs1)c1ccc(F)cc1 (configuration not stated) | inactive: -5.92%
47 | Cc1ccc(C)c(CN2C(=O)c3ccccc3S(=O)(=O)c3ccc(C(=O)N4CCCCCC4)cc32)c1 | inactive: -5.09%
48 | CCOC(=O)c1ccc2oc(=O)n(Cc3ccccc3)c2c1 | inactive: 0%
49 | CC(=O)Nc1ccc(C2Sc3ccccc3NC3=C2C(=O)c2ccccc23)cc1 (configuration not stated) | inactive: 3.17%
50 | Cc1oc2ncn(CC(C)C)c(=O)c2c1C(=O)NCCCN1CCCCC1 | inactive: 1.03%

Row | Compound | activity change, negative = inhibition
51 | O=C(COc1ccc(F)cc1)Nc1ccc2nc(SCC(=O)N3CCc4ccccc43)sc2c1 | inactive: -0.58%
52 | COc1ccccc1CNC(=O)c1ccc(N2CCCC2)c(NC(=O)NCCC(C)C)c1 | inactive: 6.68%
53 | Cc1cc(C)c(NC(=O)c2cc3sc(Cl)cc3n2C)c(C)c1 | inactive: -1.51%
54 | COc1cccc(NC(=O)CSc2ncc(S(=O)(=O)c3ccc(C)c(C)c3)c(=O)[nH]2)c1 | inactive: 0.795%
55 | Cc1ccccc1OCC(=O)OCc1cc(=O)n2nc(C3CCCCC3)sc2n1 | inactive: 0%
56 | CC(=O)c1ccc(N2CCN(S(=O)(=O)c3ccc(-c4cc(C(F)(F)F)on4)s3)CC2)cc1 | inactive: 2.78%
57 | CCc1c(-c2ccccc2)nc2ccccc2c1C(=O)NCCc1ccccc1 | inactive: 1.02%
58 | CSc1cccc(NC(=O)Cn2c3ncccc3c(=O)n2-c2ccc(C)cc2)c1 | inactive: -8.89%
59 | Cc1csc2nc(COc3ccccc3NC(=O)c3ccco3)cc(=O)n12 | inactive: -21.6%
60 | COc1cc(NC(=O)CCc2nc(-c3cccs3)no2)cc(OC)c1OC | inactive: -4.54%
61 | Cc1ccc2c(=O)cc(C(=O)Nc3cccc(Cl)c3C)oc2c1C | inactive: -16.2%
62 | COc1ccc(OCCCCn2c(-c3ccc(Cl)cc3)nc3ccccc3c2=O)cc1 | inactive: -0.143%
63 | CCCCCOC(=O)CSc1ncnc2c1sc1nc(N3CCOCC3)c3c(c12)CCCC3 | inactive: -0.863%
64 | Cc1cc(Nc2cccc(C)c2C)n2cnnc2n1 | inactive: -7.53%
65 | Cn1c(=O)c2c(-c3ccccc3Cl)n(-c3cc(Cl)ccc3O)cc2n(C)c1=O | inactive: 0%
66 | COc1ccc(Nc2ncc(C(=O)N3CCN(c4cccc(Cl)c4)CC3)c3ccccc23)cc1 | inactive: -17.5%
67 | Cc1ccc(C)c(-n2c(CCC(=O)O)ccc2-c2ccc(Cl)cc2)c1 | inactive: 0.677%
68 | Cc1cccc(NC(=O)CSc2nc(-c3ccccc3)cn2-c2ccccc2)c1C | inactive: -17.1%
69 | COCCn1ccc2c(OCC(=O)Nc3cccc(OC)c3)cccc2c1=O | inactive: -10.5%
70 | CCc1ccc2ncc3c(-c4ccc(F)cc4)nn(CC(=O)NCc4ccccc4)c3c2c1 | inactive: -11.9%
71 | Cc1nc(C)c(-c2ccc(SCC(=O)Nc3ccc(C)c(F)c3)nn2)s1 | inactive: -9.4%
72 | COc1ccc(CNC(=O)c2c(O)nc3cc(C)ccn3c2=O)cc1 | inactive: 0.0251%
73 | CC(C)CC(C(=O)NCc1ccc(F)cc1)N1Cc2ccccc2C1=O (configuration not stated) | inactive: -5.75%
74 | CCOc1ccc(-c2nc(SCC(=O)Nc3ccc(C)c(C)c3)n3[nH]c(=O)cc3n2)cc1 | inactive: -0.79%
75 | Cc1ccc(C(C)C)c(OCC(=O)Nc2ccc(C(=O)OC3CCCCC3)cc2)c1 | inactive: -8.24%

Row | Compound | activity change, negative = inhibition
76 | CCc1nnc(SCc2nc(-c3ccc(OC)c(OC)c3)oc2C)c2cc3sc(C)cc3n12 | inactive: 1.95%
77 | Cc1ccc(/C=C/c2onc(C)c2S(=O)(=O)N2CCC(C(=O)NCc3ccc(C)o3)CC2)cc1 | inactive: -4.72%
78 | COc1cccc(CNC(=O)Cc2ccc(NC(=O)N3CCCCc4ccccc43)cc2)c1OC | inactive: -1.21%
79 | Cc1ccc(CSCc2ccc(C(=O)NCCc3ccc(Cl)cc3)o2)cc1 | inactive: 7.61%
80 | Cc1cc(C)cc(N2C(=O)CSC23C(=O)N(CC(=O)NCCc2ccccc2)c2ccccc23)c1 (configuration not stated) | inactive: 3.33%
81 | CN(C(=O)c1ccc2c(c1)N(Cc1cccc(Cl)c1)C(=O)c1ccccc1S2=O)C1CCCCC1 (configuration not stated) | inactive: -5.32%
82 | CCOC(=O)C1=C(CS(=O)(=O)c2ccc(C)cc2)NC(=O)NC1c1ccc(C(C)C)cc1 (configuration not stated) | inactive: -14.1%
83 | COc1ccc(NC(=O)CCS(=O)(=O)c2cccc3nonc23)cc1Cl | inactive: -2.7%
84 | Cc1oc2ncn(C)c(=O)c2c1C(=O)NC(C)c1ccccc1 (configuration not stated) | inactive: 4.64%
85 | O=C(CSC1=Nc2ccccc2N=C(c2ccc(F)cc2)C1)NCc1ccc(F)cc1 | inactive: -4.36%
86 | Cc1ccc(C)c(CN2C(=O)CSc3ccc(C(=O)NCc4ccc(F)cc4)cc32)c1 | inactive: -1.16%
87 | Cc1ccc(CSc2nc3cccnc3n2Cc2ccc(C(=O)NCCc3ccccc3)cc2)cc1 | inactive: -9.24%
88 | CCC(=O)N1c2nc(-c3ccco3)nn2C2(CCCCC2)[C@@H]2CCCC[C@@H]21 | inactive: -4.96%
89 | CCS(=O)(=O)N1CCc2cc(C(=O)Nc3cccc(Cl)c3C)ccc21 | inactive: 1.65%
90 | O=C(c1cccc(Br)c1)N1CCN(Cc2cc(=O)n3nc(-c4ccccc4)sc3n2)CC1 | inactive: -0.348%
91 | COc1ccc(N2CCN(C(CNC(=O)C(=O)NCCCN(C)C)c3cccnc3)CC2)cc1 (configuration not stated) | inactive: 0.351%
92 | CCOc1c(Cl)cc(Cl)cc1CNCCSc1nnnn1C | inactive: 0.739%
93 | O=C(Nc1cc2c(cc1C(=O)c1ccccc1Cl)OCCO2)c1ccc(Br)cc1 | inactive: -3.84%
94 | Cc1nc2c(-c3ccccc3)c(C)nn2c(C)c1CCC(=O)NCc1ccccc1Cl | inactive: -12.3%
95 | Cc1ccc(-n2nnnc2CNC(=O)c2ccccc2S(C)(=O)=O)cc1C | inactive: -9.13%
96 | COc1ccc(-c2cn3nc(N4CCCC(C(=O)Nc5ccc(C)c(C)c5)C4)sc3n2)cc1 (configuration not stated) | inactive: 4.06%
97 | FC(F)(F)c1cc(-c2ccccc2)nc2cc(-c3ccc(Br)cc3)nn12 | inactive: 6.9%
